Assay results reported in patent publication US20260224723A1, “ANTI-B7H3 ANTIBODY-DRUG CONJUGATE AND USE THEREOF” (Duality Biologics (Suzhou) Co., Ltd., priority 2022, published 2026).

Legend:
[1] = Thermal stability (Tm) determined by DSF; format: physicochemical; conditions: Tm1
Description: Tm (melting temperature) of each antibody was investigated using QuantStudio® 7 Flex real-time PCR system (Applied Biosystems). 19 μL of the antibody solution in Example 1.2 was mixed with 1 μL of SYPRO Orange solution (Invitrogen) and transferred to a 96-well plate (Applied Biosystems). The plate was sealed with an optical adhesive film (Applied Biosystems) and centrifuged at 3,000 rpm for 5 min to remove any air bubbles. The plate was heated from 26° C. to 95° C. at a rate of 0.9° C./min, and the resulting fluorescence data were collected. The negative derivatives of the fluorescence changes with respect to different temperatures were calculated, and the maximum value was defined as the melting temperature Tm. If a protein has multiple unfolding transitions, the first Tm were reported and designated Tm1. Data collection and Tm calculation were performed automatically by QuantStudio® real-time PCR software (v1.3).

[2] = test system: U87 human brain cancer cells; experiment: U87 MG subcutaneous xenograft tumor-bearing mouse model; format: in vivo, mice; conditions: for T/C / TGI: day 20
From the text: 6- to 8-week-old female NCG mice (purchased from Jiangsu GemPharmatech Co., Ltd.) were used as test animals. 5×10^6 U87 human brain cancer cells were inoculated subcutaneously into the right sides of the necks or dorsa of 6- to 8-week-old female NCG mice. The growth of tumors in mice was observed. When the volume of the tumors reached about 187 mm^3, the tumor-bearing mice were randomized into groups with 6 mice in each of the blank control group and the treatment groups. […] Doses administered were 1 mg/kg and 3 mg/kg. The experiment ended on day 20. Experimental grouping and dosing were as follows.
(§1) At the end of the experiment, mice were euthanized and tumor inhibition rate TGI was calculated as follows:
(§2) [formula] • Ti: mean tumor volumes of the treatment groups and the positive control group on day i of administration; • T0: mean tumor volumes of the treatment groups and the positive control group on day 0 of administration; • Vi: mean tumor volume of the negative control group on day i of administration; • V0: mean tumor volume of the negative control group on day 0 of administration.

[3] = test system: PC-3 human prostate cancer cells; experiment: PC-3 subcutaneous xenograft tumor-bearing mouse model; format: in vivo, mice
From the text: 6- to 8-week-old female BALB/c Nude mice (purchased from Zhejiang Vital River Laboratory Animal Technology Co., Ltd.) were used as test animals. 5×10^6 PC-3 human prostate cancer cells were inoculated subcutaneously into the right sides of the necks or dorsa of 6- to 8-week-old female BALB/c Nude mice. The growth of tumors was observed. When the volume of the tumors reached about 155 mm^3, the tumor-bearing mice were randomized into groups with 6 mice in each of the blank control group and the treatment groups. […] Doses administered were 2 mg/kg and 6 mg/kg. The experiment ended on day 21. Experimental grouping and dosing were as follows.
as §1, §2

[4] = test system: Calu-6 human lung cancer cells; experiment: Calu-6 subcutaneous xenograft tumor-bearing mouse model; format: in vivo, mice
From the text: 6- to 8-week-old female BALB/c Nude mice (purchased from Zhejiang Vital River Laboratory Animal Technology Co., Ltd.) were used as test animals. 10×10^6 Calu-6 lung cancer cells were inoculated subcutaneously into the right dorsa of 6- to 8-week-old female BALB/c Nude mice. The growth of tumors in mice was observed. When the volume of the tumors reached about 139 mm^3, the tumor-bearing mice were randomized into groups with 6 mice in each of the blank control group and the treatment groups. […] Doses administered were 1 mg/kg and 3 mg/kg. The experiment ended on day 28. Experimental grouping and dosing were as follows.
as §1, §2

[5] = 2 mg/kg i.v. single dose, day 21
[6] = 6 mg/kg i.v. single dose, day 21
[7] = 1 mg/kg i.v. single dose, day 24
[8] = 3 mg/kg i.v. single dose, day 24

B1: W301088-1.145.16-z3-p1-uIgG1KV320: humanized anti-B7H3 IgG1 antibody, heavy chain SEQ ID NO: 12, light chain SEQ ID NO: 13 (antibody)
heavy: QVQLQESGPGLVKPSQTLSLTCTVTDYSITGDYAWNWIRQHPGKGLEWIGYISYSGSTSYNPSLQSRVTISRDTSKNQFSLKLSSVTAADTAVYFCARSLGRRWYFVVWGQGTTVTVSSASTKGPSVFPLAPSSKSTSGGTAALGCLVKDYFPEPVTVSWNSGALTSGVHTFPAVLQSSGLYSLSSVVTVPSSSLGTQTYICNVNHKPSNTKVDKRV[not shown - human IgG1 Fc with changes]
light: DIVMTQSPDSLAVSLGERATINCKSSQSLLQSSNQKNYLAWYQQKPGQPPKLLIYFASTRESGVPDRFSGSGSGTDFTLTISSLQAEDVAVYYCQQHYSAPWTFGGGTKVEIKRTVAAPSVFIFPPSDEQLKSGTASVVCLLNNFYPREAKVQWKVDNALQSGNSQESVTEQDSKDSTYSLSSTLTLSKADYEKHKVYACEVTHQGLSSPVTKSFNRGEC
[1]
  Tm: 70.1 °C

B2: WBP301088-X2: antibody WBP301088 conjugated to linker-payload X2; the DAR6 batch was used in Examples 3-11 (conjugate)
heavy: QVQLQESGPGLVKPSQTLSLTCTVTDYSITGDYAWNWIRQHPGKGLEWIGYISYSGSTSYNPSLQSRVTISRDTSKNQFSLKLSSVTAADTAVYFCARSLGRRWYFVVWGQGTTVTVSSASTKGPSVFPLAPSSKSTSGGTAALGCLVKDYFPEPVTVSWNSGALTSGVHTFPAVLQSSGLYSLSSVVTVPSSSLGTQTYICNVNHKPSNTKVDKRV[not shown - human IgG1 Fc with changes]
light: DIVMTQSPDSLAVSLGERATINCKSSQSLLQSSNQKNYLAWYQQKPGQPPKLLIYFASTRESGVPDRFSGSGSGTDFTLTISSLQAEDVAVYYCQQHYSAPWTFGGGTKVEIKRTVAAPSVFIFPPSDEQLKSGTASVVCLLNNFYPREAKVQWKVDNALQSGNSQESVTEQDSKDSTYSLSSTLTLSKADYEKHKVYACEVTHQGLSSPVTKSFNRGEC
[2]; 1 mg/kg i.v. single dose, Day 0
  Tumor volume: 187 ± 25 mm^3
[2]; 1 mg/kg i.v. single dose, Day 3
  Tumor volume: 234 ± 27 mm^3
[2]; 1 mg/kg i.v. single dose, Day 6
  Tumor volume: 308 ± 49 mm^3
[2]; 1 mg/kg i.v. single dose, Day 9
  Tumor volume: 387 ± 42 mm^3
[2]; 1 mg/kg i.v. single dose, Day 13
  Tumor volume: 439 ± 51 mm^3
[2]; 1 mg/kg i.v. single dose, Day 16
  Tumor volume: 646 ± 42 mm^3
[2]; 1 mg/kg i.v. single dose, Day 20
  Tumor volume: 1074 ± 64 mm^3
[2]; 1 mg/kg i.v. single dose
  T/C: 65.06%
  TGI: 39.40%
[2]; 3 mg/kg i.v. single dose, Day 0
  Tumor volume: 188 ± 20 mm^3
[2]; 3 mg/kg i.v. single dose, Day 3
  Tumor volume: 220 ± 25 mm^3
[2]; 3 mg/kg i.v. single dose, Day 6
  Tumor volume: 254 ± 43 mm^3
[2]; 3 mg/kg i.v. single dose, Day 9
  Tumor volume: 231 ± 45 mm^3
[2]; 3 mg/kg i.v. single dose, Day 13
  Tumor volume: 202 ± 49 mm^3
[2]; 3 mg/kg i.v. single dose, Day 16
  Tumor volume: 266 ± 80 mm^3
[2]; 3 mg/kg i.v. single dose, Day 20
  Tumor volume: 474 ± 148 mm^3
[2]; 3 mg/kg i.v. single dose
  T/C: 28.70%
  TGI: 80.49%
[2]; single dose, 1 and 3 mg/kg
  anti-tumor activity (in words): significant dose-dependent anti-tumor activity
[3]; 2 mg/kg i.v. single dose, day 0
  Tumor volume: 155 ± 7 mm^3
[3]; 2 mg/kg i.v. single dose, day 4
  Tumor volume: 202 ± 8 mm^3
[3]; 2 mg/kg i.v. single dose, day 7
  Tumor volume: 248 ± 23 mm^3
[3]; 2 mg/kg i.v. single dose, day 11
  Tumor volume: 268 ± 27 mm^3
[3]; 2 mg/kg i.v. single dose, day 14
  Tumor volume: 274 ± 28 mm^3
[3]; 2 mg/kg i.v. single dose, day 18
  Tumor volume: 282 ± 32 mm^3
[3]; [5]
  T/C: 29.30%
  TGI: 83.41%
  Tumor volume: 298 ± 37 mm^3
[3]; 6 mg/kg i.v. single dose, day 0
  Tumor volume: 155 ± 9 mm^3
[3]; 6 mg/kg i.v. single dose, day 4
  Tumor volume: 199 ± 11 mm^3
[3]; 6 mg/kg i.v. single dose, day 7
  Tumor volume: 233 ± 6 mm^3
[3]; 6 mg/kg i.v. single dose, day 11
  Tumor volume: 241 ± 6 mm^3
[3]; 6 mg/kg i.v. single dose, day 14
  Tumor volume: 225 ± 14 mm^3
[3]; 6 mg/kg i.v. single dose, day 18
  Tumor volume: 231 ± 15 mm^3
[3]; [6]
  T/C: 18.06%
  TGI: 96.62%
  Tumor volume: 184 ± 11 mm^3
[3]; single dose, 2 and 6 mg/kg
  anti-tumor activity (in words): significant dose-dependent anti-tumor activity
[4]; 1 mg/kg i.v. single dose, day 0
  Tumor volume: 140 ± 14 mm^3
[4]; 1 mg/kg i.v. single dose, day 3
  Tumor volume: 196 ± 17 mm^3
[4]; 1 mg/kg i.v. single dose, day 7
  Tumor volume: 238 ± 21 mm^3
[4]; 1 mg/kg i.v. single dose, day 10
  Tumor volume: 267 ± 22 mm^3
[4]; 1 mg/kg i.v. single dose, day 14
  Tumor volume: 290 ± 29 mm^3
[4]; 1 mg/kg i.v. single dose, day 17
  Tumor volume: 317 ± 35 mm^3
[4]; 1 mg/kg i.v. single dose, day 21
  Tumor volume: 363 ± 47 mm^3
[4]; [7]
  T/C: 15.61%
  TGI: 89.37%
  Tumor volume: 394 ± 56 mm^3
[4]; 1 mg/kg i.v. single dose, day 28
  Tumor volume: 457 ± 76 mm^3
[4]; 3 mg/kg i.v. single dose, day 0
  Tumor volume: 140 ± 20 mm^3
[4]; 3 mg/kg i.v. single dose, day 3
  Tumor volume: 192 ± 27 mm^3
[4]; 3 mg/kg i.v. single dose, day 7
  Tumor volume: 219 ± 28 mm^3
[4]; 3 mg/kg i.v. single dose, day 10
  Tumor volume: 227 ± 30 mm^3
[4]; 3 mg/kg i.v. single dose, day 14
  Tumor volume: 198 ± 22 mm^3
[4]; 3 mg/kg i.v. single dose, day 17
  Tumor volume: 156 ± 15 mm^3
[4]; 3 mg/kg i.v. single dose, day 21
  Tumor volume: 116 ± 3 mm^3
[4]; [8]
  T/C: 2.99%
  TGI: 102.73%
  Tumor volume: 75 ± 9 mm^3
[4]; 3 mg/kg i.v. single dose, day 28
  Tumor volume: 61 ± 9 mm^3
[4]; single dose, 1 and 3 mg/kg
  anti-tumor activity (in words): significant dose-dependent anti-tumor activity
